Laboratory results taken from PubChem BioAssay AID1159614 (National Center for Advancing Translational Sciences (NCATS), 2016).
The whole screen tested about 45,000 compounds, of which about 65 (0.1%) were called active. The call rests on the fitted dose curve; in most records, active means well fitted activation curve with a large enough effect; inconclusive means small, poorly fitted or top-dose-only effect; inactive means no such curve, though single readings can be large or run the other way. The list shows a part of the results.

Each compound was assayed against Galactocerebrosidase (Homo sapiens) (UniProt P54803) (assay: A Novel Cell-Based Assay to Identify Small Molecules for B -Galactocerebrosidase). Conditions: 145M-Twi-hGALC-G270D cells (Twitcher mouse brain line with human GALC G270D), HMU-beta-Gal fluorescence, 48 h; series mostly up to 57.5 µM; activation: at the top concentration.
In short: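 Fluorogenic HMU-b-Gal hydrolysis (0.1 mM final, pH 5.2 citrate-phosphate with 1 mg/mL sodium taurocholate; carbonate stop buffer) measures mutant GALC activity after compound treatment of live 145M-Twi Twitcher brain cells stably carrying human GALC-G270D, with wild-type GALC line alongside; activation sought.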
Further: 0% is about no effect; nearly all actives have a fitted effect of over 65% in size.

UniProt P54803, sequence (P54803 whole entry, looked up): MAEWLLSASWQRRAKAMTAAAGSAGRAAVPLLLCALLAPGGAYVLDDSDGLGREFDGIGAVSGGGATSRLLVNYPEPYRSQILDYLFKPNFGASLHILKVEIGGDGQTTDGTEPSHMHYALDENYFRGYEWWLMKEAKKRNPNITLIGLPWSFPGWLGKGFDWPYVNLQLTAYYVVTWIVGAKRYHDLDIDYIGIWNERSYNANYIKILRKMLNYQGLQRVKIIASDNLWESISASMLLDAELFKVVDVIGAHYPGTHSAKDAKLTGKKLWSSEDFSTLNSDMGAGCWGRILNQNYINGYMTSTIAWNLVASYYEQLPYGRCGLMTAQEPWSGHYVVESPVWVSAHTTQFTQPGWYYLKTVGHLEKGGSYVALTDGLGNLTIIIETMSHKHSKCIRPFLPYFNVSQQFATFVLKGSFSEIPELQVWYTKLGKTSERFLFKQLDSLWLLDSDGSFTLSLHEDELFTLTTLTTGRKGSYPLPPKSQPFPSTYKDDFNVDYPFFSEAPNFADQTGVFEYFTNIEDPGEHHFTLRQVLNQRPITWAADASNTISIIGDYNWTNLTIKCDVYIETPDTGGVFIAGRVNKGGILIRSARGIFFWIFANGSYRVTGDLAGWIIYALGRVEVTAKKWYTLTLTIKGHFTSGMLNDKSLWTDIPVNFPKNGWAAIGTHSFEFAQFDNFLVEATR

activation, inactive:
Cc1ccc(N2CCN(c3nc4ccccc4n4nnnc34)CC2)c(C)c1 -4.77%
Cc1cc(C)cc(NC(=O)c2cc(S(=O)(=O)N3CCOCC3)cn2C)c1 -15.1%
COc1cc(C(=O)OC(COCCC(C)C)CN2CCOCC2)cc(OC)c1OC (centres undefined) -11.4%
COc1cccc(C(=O)Nc2ccc(-c3nc4ccc(C)cc4s3)cc2)c1OC -10%
COc1cn(CC(=O)Nc2ccc(C)cc2C)c(CN2CCCCC2)cc1=O -5.94%
O=C(CSc1nc2c([nH]c3ccccc32)c(=O)n1-c1cccc(C(F)(F)F)c1)N1CCCC1 -5.08%
CCOC(=O)c1cccc(NC(=O)C2(S(=O)(=O)c3ccc(C)cc3)CC2)c1 -11.1%
Cc1cccc(-c2nnn3c2nc(NCCC(C)C)c2ccccc23)c1 -6.3%
Cc1cc(C)c(NC(=O)Cn2nnc(-c3nc(-c4ccncc4)no3)c2N)c(C)c1 -12%
Cc1cc2c(cc1S(=O)(=O)N1CCC(C(N)=O)CC1)OCC(=O)N2 -7.58%
Cc1ccc(Nc2c(-c3ccc(N4CCOCC4)cc3)nc3ccc(Cl)cn23)cc1 2.45%
CCOc1ccc(C2c3c(oc4ccccc4c3=O)C(=O)N2Cc2ccc3c(c2)OCO3)cc1 (centres undefined) -19.4%
CC(=O)C1=C(c2ccc(C)cc2)N(C(C)=O)n2c(nnc2-c2ccccc2)S1 -18.5%
COc1ccc(S(=O)(=O)NCC(c2ccc(N(C)C)cc2)N2CCCC2)cc1F (centres undefined) -7.97%
CCOc1cccc(C2c3c(oc4ccc(F)cc4c3=O)C(=O)N2CCOC)c1 (centres undefined) -10.6%
CCCNC(=O)C1CCC(Cn2c(=O)c3sccc3n(CC(=O)N3CCCC(C)C3)c2=O)CC1 (centres undefined) -5.91%
Cc1cccc(NC(=O)CN2C(=O)COc3ccc(S(=O)(=O)Nc4ccccc4)cc32)c1C -3.03%
Cc1[nH]c2ccc(C(=O)NCCc3ccccc3Cl)cc2c1C -17%
Cc1ccccc1Cn1cc(NC(=O)c2cc(-c3ccc(Cl)cc3)on2)cn1 -9.2%
Cc1ccc(Cl)cc1N1CCN(S(=O)(=O)c2ccc3oc(=O)c4ncn(C)c4c3c2)CC1 -0.0901%
Cc1cccc(OCC(=O)NCC2(N3CCN(C)CC3)CCCCC2)c1 -15.6%
CCC1CN(C(=O)N2CCC(C(=O)NCc3ccc(C)o3)CC2)c2ccccc2O1 (centres undefined) -13.2%
COc1ccc(Nc2cc(C(=O)NCc3ccccc3)c3ccccc3n2)cc1 2.85%
CCCS(=O)(=O)N1CC(=O)N(c2ccccc2C)C(C)(C(=O)NC2CCCCC2)C1 (centres undefined) -9.98%
Cc1ccc(S(=O)(=O)c2nnn3c2nc(NCc2ccc(F)cc2)c2sccc23)cc1C -16.2%
CC(C)OCCCn1c(=O)c2ccccc2n2c(-c3ccc(F)c(F)c3)nnc12 -23%
CSc1ccc(CNC(=O)CN2C(=O)C3CCCCN3c3ccc(C(=O)N4CCCC4)cc32)cc1 (centres undefined) -17.5%
Cn1ccc2c(OCC(=O)Nc3ccc([N+](=O)[O-])cc3)cccc2c1=O -18.9%
O=S(=O)(NCc1nc2cccnc2n1Cc1ccc(F)cc1)c1ccc(Cl)s1 1.79%
COc1ccc(-c2nc3cc(C(C)C)ccc3o2)cc1NC(=O)c1ccc(C)c(Cl)c1 -23.4%
COC(=O)c1cc2sc(C)cc2n1CC(=O)Nc1cccc(SC)c1 -42.5%
Cc1cccc(OCC(=O)Nc2ccc3oc(-c4ccccc4F)nc3c2)c1 -5.93%
COc1ccc(NC(=O)c2cc(S(=O)(=O)NCCC3=CCCCC3)ccc2F)cc1 -6.97%
FC(F)(F)c1ccc(-c2noc(-c3ccccc3Br)n2)cc1 -17.7%
CCc1ccc(NC(=O)C2CCN(S(=O)(=O)c3c(C)noc3/C=C/c3ccco3)CC2)cc1 -1.76%
CCOC(=O)C1CCN(C(=O)c2ccc3c(c2)sc2nc(-c4ccc(C)cc4)cn23)CC1 4.09%
CCCCCC(=O)N(c1ccc(OCC)cc1)S(=O)(=O)c1ccc2c(c1)n(C)c(=O)n2C -10.6%
Cc1ccc(CCNC(=O)c2ccc(CS(=O)(=O)Cc3cccc(C)c3)o2)cc1 -8.45%
Cc1ccc(NC(=O)Cn2cc3c(n2)CCC(C)C3)cc1C (centres undefined) -9.44%
COc1ccc(Cn2ccc3nc(C)c(C(=O)N4CCN(c5ccccc5F)CC4)cc3c2=O)cc1 -19.2%
Cc1ccccc1C(=O)NC1(C(F)(F)F)N=C(c2ccccc2)N(Cc2ccccc2)C1=O (centres undefined) -25.3%
COc1cccc(-c2cc(C(F)(F)F)n3nc(C)c(-c4ccccc4)c3n2)c1 -4.3%
CCn1ccc2cc(S(=O)(=O)N3CCCN(C(=O)NCC(=O)OC)CC3)ccc21 -15.8%
Cc1cc(C)c(S(=O)(=O)NCc2csc(-c3ccccc3)n2)c(C)c1 -2.95%
Cc1ccc2nc(COc3cccc(NC(=O)c4cccc(Cl)c4)c3)cc(=O)n2c1 -13.3%
CCc1ccccc1N(C)C(=O)c1nn(C)c2c1CSc1ccccc1-2 -4.87%
COC(=O)c1ccc(Oc2nc3c(c(=O)n(C)c(=O)n3C)n2C(C)C)cc1 -6.9%
O=C(COc1ccccc1[N+](=O)[O-])Nc1cc(-c2nc3cc(Cl)ccc3o2)ccc1Cl -17.2%
Cc1ccc2nc(N3CCC(C(=O)NCc4ccc(F)cc4)CC3)[nH]c2c1 -3.92%
CCCCNC(=O)CSc1nc2cc3c(cc2c(=O)n1CCCCCC(=O)NCCc1ccc(OC)c(OC)c1)OCO3 -5.86%
CCC12CN3CC(C)(CN(C1)C3c1c[nH]c3ccc(OC)cc13)C2=O (centres undefined) -17.6%
Cc1ccccc1NC(=O)Cn1c(=O)n(CCC(=O)NCc2ccc3c(c2)OCO3)c(=O)c2sccc21 -5.31%
CC(=O)N1CCc2cc(CNS(=O)(=O)c3ccc(C(C)(C)C)cc3)ccc21 3.26%
O=C1CN(C(=O)c2ccc(S(=O)(=O)N3CCCCC3)cc2)C(c2ccc(F)cc2)c2cc(Br)ccc2N1 (centres undefined) -12.1%
Cc1ccc(OCC(=O)Nc2ccc3nc(SCC(=O)N4CCOCC4)sc3c2)cc1C -8.41%
CCOC(=O)C1CCCN(C(=O)CCS(=O)(=O)c2cc3c(cc2Cl)NC(=O)CO3)C1 (centres undefined) -6.11%
CCC(Sc1nc2cc3c(cc2c(=O)n1CCCC(=O)NCc1ccc(OC)cc1)OCO3)C(=O)NCCCOC (centres undefined) -7.77%
CCN(CC)C(=O)c1sc2c(c1C)c(=O)n(-c1ccc(C)c(C)c1)c(=O)n2Cc1cccc(Cl)c1 -22.1%
Cc1ccc2cccc(NC(=O)c3ccc(C#N)cc3F)c2n1 3.15%
CCCCc1ccc(NS(=O)(=O)c2ccc(N3CCCCS3(=O)=O)cc2)cc1 1.99%
CCOc1ccc(C(=O)c2cn(Cc3ccccc3)c3c(F)cc(F)cc3c2=O)cc1 -37.2%
Cc1ccc(C2C=C(c3ccc(F)cc3)Nc3nc(CCCO)nn32)cc1 (centres undefined) -11.2%
COc1ccc(OC)c(NC(=O)c2cnc(N3CCCC3)nc2C)c1 -13.4%
Cc1nn(-c2ccc(F)cc2)c(-n2cccc2)c1C(=O)N1CCN(c2ccccc2F)CC1 -30.8%
COc1ccccc1CNC(=O)CN(c1ccc(C)cc1)S(=O)(=O)c1c(C)noc1C -10.3%
CC(=O)Nc1ccc(NS(=O)(=O)c2ccc(Cl)s2)cc1 -30.6%
Cc1c(C(=O)Nc2ccc(F)c(F)c2)oc2ccc(S(=O)(=O)N3CCC4(CC3)OCCO4)cc12 -3.72%
O=C(Nc1c(-c2ccc(F)cc2)nc2ccccn12)c1cccc(F)c1 -10.8%
O=C(CN1C(=O)CCc2cc(S(=O)(=O)N3CCOCC3)ccc21)NCc1ccccc1Cl -6.86%
CCCOc1ccc(NC(=O)CC2C(=O)N(c3ccc(C)cc3)C(=O)N2C2CCCC2)cc1 (centres undefined) -23.3%
CCSc1ncc(Cl)c(C(=O)N(Cc2ccccc2)Cc2ccco2)n1 3.95%
CCOC(=O)C1CCCN(S(=O)(=O)c2cc3c(cc2C)NC(=O)CO3)C1 (centres undefined) -13.2%
O=C(NCc1cccc(F)c1)c1ccc2nc(N3CCCCC3)sc2c1 -14.9%
COc1ccc(Cn2c(=O)c3oc4ccccc4c3n(Cc3cccc(F)c3)c2=O)cc1 -5.61%
Cc1ccc(OCC(=O)Nc2ccc3nc(SCC(N)=O)sc3c2)cc1 10.6%
CCSc1nnc2c(n1)OC(c1sccc1C)N(C(C)=O)c1ccccc1-2 (centres undefined) 2.27%
CC1=C(C(=O)Nc2cc(Cl)ccc2C)C(c2ccco2)n2ncnc2N1 (centres undefined) -13.8%
O=C(CSc1nc2c([nH]c3ccccc32)c(=O)n1-c1ccc(F)cc1)NCc1ccco1 3.84%
Cc1c(C)n(C)c2ccc(C(=O)NCCc3ccc(Cl)cc3)cc12 -7.51%
O=C(NCCc1ccc(Cl)cc1)c1ccc2c(c1)N(Cc1c(F)cccc1Cl)C(=O)CS2 -6.19%
COC(=O)c1c(C)oc2ccc(N(C(=O)Oc3ccccc3)S(=O)(=O)c3ccc(C(C)(C)C)cc3)cc12 -5.34%
Cc1ccc(NC(=O)C2CCCN(S(=O)(=O)c3c(C)n[nH]c3C)C2)cc1Cl (centres undefined) 7%
COc1cccc(CNC(=O)CSC2=Nc3ccccc3C3=NC(C)C(=O)N23)c1OC (centres undefined) -10.6%
COc1ccc(-c2noc(N3CCN(c4ccc(C)cc4)C(C)C3)n2)cc1OC (centres undefined) -14.2%
Cc1ccc(CSc2ncc(Cl)c(C(=O)Oc3ccc(F)cc3)n2)cc1 -3.81%
CCOc1ccc(NC(=O)Cn2c(=O)n(CCCC(=O)NCc3ccc4c(c3)OCO4)c(=O)c3ccccc32)cc1 -4.33%
COC(=O)c1sc2cccc(F)c2c1S(=O)(=O)NCc1ccc(Cl)cc1 -12.3%
CCOC(=O)c1c(NC(=O)C(C)Sc2cn(CCNC(=O)c3ccccc3OC)c3ccccc23)sc2c1CCC2 (centres undefined) -22.7%
Cc1ccc(-n2nc3ccc(NC(=O)Cc4ccc(Cl)cc4)cc3n2)cc1 -13.7%
CCOC(=O)COc1ccc(CC)cc1C(=O)c1ccn2nc(-c3ccc(Cl)cc3)cc2n1 -11.6%
O=C(c1ccc2c(c1)N(Cc1ccc(F)cc1)C(=O)c1ccccc1S2(=O)=O)N1CCN(c2ccccn2)CC1 11%
COc1ccccc1CNC(=O)c1cnc2c(-c3ccccc3)c(C)nn2c1C -17.2%
COc1ccccc1N1CCN(CCCNC(=O)c2cnn(-c3ccc(C)c(C)c3)c2C2CCN(C(=O)OC(C)(C)C)CC2)CC1 4.5%
Fc1ccc(-c2cc(C(F)(F)F)nc(NCc3ccccc3)n2)cc1 -15.5%
